Test results taken from the supplement of paper PMC11417369.
This is one part of the list.

tested on: PfAP2-HC AP2 domain (GST-tagged); experiment: gcPBM binding intensity (ln(normalized median fluorescence intensity)); higher = stronger DNA binding
Outline: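 The highest Masliner-normalised natural-log median intensity across replicate spots of either probe orientation is reported as binding intensity. GST-tagged P. falciparum DNA-binding domains expressed in E. coli were applied for 1 h to an Agilent 4 × 180k array of primer-extended double-stranded 36-bp intergenic genomic probes plus negative controls, and bound protein was detected with Alexa488 anti-GST antibody and scanned at 488 nm.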

Going from “ACATAATAAAAATGACGTACAATTTTTTTTTTTCAT [XGTACX_site8340]” to “CATTAAAAAGAAAGTTCACACACATATATATGACGG [CACACA_site8836]”, the “gcPBM binding intensity (ln)” value rises from 9.6 to 10.1.

Going from “ATATAACACATTAGTTGTACTATTTTTAATTGGTGA [XGTACX_site961]” to “ACTACATAATATTAACGTACATATTATAATACTTGC [XGTACX_site954]”, the “gcPBM binding intensity (ln)” value rises from 9.58 to 9.77.

Going from “TAGCCCATATGGAATACACACTGAAAATAAAAAAAG [CACACA_site5799]” to TTACAATAAATTATAGTGCAATATTTTATTTAATAT, the “gcPBM binding intensity (ln)” value falls from 9.73 to 9.48.

Compared with “ATGAATAATTAATGATGTACTTAAAAAAAAAAATAT [XGTACX_site6346]”, “AAAAAAAAAAAAAAAAAAAAAAAAAAAAAAACATAT [GTGCAC_negctrl_site580]” is lower in “gcPBM binding intensity (ln)” value: 9.53 for the first, 9.43 for the second.

First: ATATATTATATTGAATGTACATATATATATTATATA [XGTACX_site8445]
Second: GTTAATATCTTGAACAGTACTCTAAATATCTACATA [XGTACX_site5358]
The “gcPBM binding intensity (ln)” value of the first is higher: 9.58 for the first, 9.57 for the second.

Going from “CAATGTTGTACATACACACACACAAAAAAAAAATAA [CACACA_site2407]” to “TTCAAATTTCCACATACACACCTTGTAGATCTATAT [CACACA_site6270]”, the “gcPBM binding intensity (ln)” value falls from 11.4 to 9.92.

Compared with “ATAAAAAAACACACTCGTACACACATATTTTCTTTC [XGTACX_site6565]”, “GATAATAATAAACAACCACACACAAAAAAACAAAAA [CACACA_site9074]” is higher in “gcPBM binding intensity (ln)” value: 10.2 for the first, 10.6 for the second.

First: TGCTATAATTTATATACACACAAATATATACACATA [CACACA_site9356]
Second: TTTTTTTTTTTTTTTTGTACATATAAAAATACGTAA [XGTACX_site6003]
The “gcPBM binding intensity (ln)” value of the first is higher: 9.75 for the first, 8.98 for the second.

Going from “TCACTACATTTTGGACGTACACAACTTGATATATTG [XGTACX_site4775]” to ATGATATACTTGAGTGTGCACAAACTATTACTTACA, the “gcPBM binding intensity (ln)” value rises from 9.83 to 10.1.

First: AAATCTTAACTCTATGCACACATAAAAGTATATAAA [CACACA_site8709]
Second: ATTTTGATGATGTATGCACACATTGAAAATGAGAAA [CACACA_site2916]
The “gcPBM binding intensity (ln)” value of the first is lower: 9.58 for the first, 9.9 for the second.

Compared with “ATATATATATATATATGTACATATTTGATTTTTCTT [XGTACX_site8171]”, “TATATATCGCCCTTCACACACACACGGATATAAATA [CACACA_site7221]” is higher in “gcPBM binding intensity (ln)” value: 9.6 for the first, 10.2 for the second.

Going from “CGCTCTTATAAATGTTGTACATAAAACTGTTCATTA [XGTACX_site3409]” to “ATAATAAATATATAATGTACATATTATGTTCTTTAT [XGTACX_site8655]”, the “gcPBM binding intensity (ln)” value rises from 9.63 to 9.65.

First: ATCGGTAATATTAACACACACATTTATATATATTTA [CACACA_site1084]
Second: TTTTGTAGATATTGAAGTACAAAAAAAATGTAAAAG [XGTACX_site5905]
The “gcPBM binding intensity (ln)” value of the first is higher: 10.2 for the first, 9.59 for the second.

Compared with “TTTTTTAATATATTATTATAAATATTTTTTATGTGT [GTGCAC_negctrl_site712]”, “CATAATGTAAATAAGTGTACACATATATAATACATA [XGTACX_site3108]” is higher in “gcPBM binding intensity (ln)” value: 9.72 for the first, 9.85 for the second.

Going from “ATGCGTTAATCTATATATATTATGTATAGATTTTCA [CACACA_negctrl_site1650]” to “AACATATTTATGATGTGTACCTACATAATAGAATTT [XGTACX_site141]”, the “gcPBM binding intensity (ln)” value rises from 9.63 to 9.67.

Compared with “AACATTATGTTTATTTGTACATATAAATATATGTAA [XGTACX_site7389]”, “TCTTTTATGATATTTACACACAAACGTGAGATAGCT [CACACA_site2312]” is higher in “gcPBM binding intensity (ln)” value: 9.43 for the first, 9.77 for the second.

Going from “CTCTACGAATTCATAGTGCAAAGAGCTAATTTTTTC [GTGCAC_site9710]” to “GATCATTCAGTTTTATCACACACAATCAAACATATA [CACACA_site8882]”, the “gcPBM binding intensity (ln)” value rises from 9.39 to 9.89.

Compared with “ATATTTTGATAATATTGTACAAAAACATTAAAATGT [XGTACX_site8361]”, “TAATCCATAAGAAGCACACACATATAAATATATTTT [CACACA_site6774]” is higher in “gcPBM binding intensity (ln)” value: 9.66 for the first, 10.1 for the second.

Compared with “TTTAAATATTTTAACACACTCATATTTAGGTTACAA [CACACA_site5685]”, “TTTACATATTTATATACACACTTTTGCGTGTCTGGT [CACACA_site4750]” is higher in “gcPBM binding intensity (ln)” value: 9.61 for the first, 10.2 for the second.

Compared with “TCCATATATATTATGTGTACATATTATATATATAAA [XGTACX_site7525]”, “AGTAAAAGAAAGCACACACACATGTATATATGTATG [CACACA_site3858]” is higher in “gcPBM binding intensity (ln)” value: 9.55 for the first, 11 for the second.

First: CAATATAAAAAACACACGCACACAAAAAAAAAAAAA [CACACA_site3521]
Second: ATATATAAAATATATTGTACATTAACATATATATTT [XGTACX_site2055]
The “gcPBM binding intensity (ln)” value of the first is higher: 10.3 for the first, 9.57 for the second.

Going from “GTAATATTATATAGTTGTACTTTTTTTTTATTATAT [XGTACX_site483]” to “AAACTTGACGGACACACACACACATATATAAAAAAA [CACACA_site4577]”, the “gcPBM binding intensity (ln)” value rises from 9.73 to 11.6.

First: ATATATAAATAAATAGTGCATTTTAATATTTAACGT
Second: TTTCTTTATTTTTTTTTTTTTTTTTTTCCTTTTTTT [TGCATGCA_negctrl_site231]
The “gcPBM binding intensity (ln)” value of the first is higher: 9.73 for the first, 9.35 for the second.

Going from “TGTTATATTTGTGCGTGTACACATTTGAAAAAATAT [XGTACX_site3796]” to “AACGGGGCCAAGAAATATAAATAATCAAAACAAAAA [XGTACX_negctrl_site320]”, the “gcPBM binding intensity (ln)” value falls from 9.64 to 9.38.

Compared with “TGTGCACGCATATACACACACAAATACAATGATAAA [CACACA_site6656]”, “AATATCATCAAACGCACACATACATAAATATATTAT [CACACA_site2174]” is higher in “gcPBM binding intensity (ln)” value: 10.3 for the first, 10.5 for the second.

First: GTTCTTTCAAGTTATACACACCAAAAAAAAAAAAAA [CACACA_site7435]
Second: TAGTACACACAAAATACATGCGGGGTTTAATATTTA [TGCATGCA_site576]
The “gcPBM binding intensity (ln)” value of the first is lower: 9.52 for the first, 9.89 for the second.

Going from “AATTCTTTCATATATTGTACGTATTCCCATAAAATA [XGTACX_site5923]” to “AGTGTGTGTGCGTATAGTACATATACATATATACAC [XGTACX_site6882]”, the “gcPBM binding intensity (ln)” value rises from 9.63 to 10.8.

Going from “AAATGAATAAAATTTATTTATAAAAGAAAAATCACA [GTGCAC_negctrl_site225]” to “ATAATACAAAATACATGTACAAATATTTTTCATATT [XGTACX_site1721]”, the “gcPBM binding intensity (ln)” value rises from 9.57 to 9.75.

First: TCAATAGTTACTAGTACATGCAAAAATAAACCTATA [TGCATGCA_site85]
Second: CAAATATATATGTTCACACATATAATTATTGTGAAA [CACACA_site4190]
The “gcPBM binding intensity (ln)” value of the first is higher: 9.64 for the first, 9.62 for the second.

Going from “TTGCCATTAATTTATACACACACATTTTAATTTTTT [CACACA_site8150]” to “TTGTCATTTATAAAATGTACGTGTGTATATATTTAA [XGTACX_site5000]”, the “gcPBM binding intensity (ln)” value falls from 10 to 9.6.

Compared with “TTTTAAAGCATATCATATAAAGAACATGACATAGGA [CACACA_negctrl_site630]”, “TTATATTTATGATACACACACGTATATTCACATACA [CACACA_site6354]” is higher in “gcPBM binding intensity (ln)” value: 9.42 for the first, 9.9 for the second.

Going from “AACATTTTTAAATATATAAAAATATATATATATATA [XGTACX_negctrl_site551]” to “GTATGTTTAATTTTAGTGCAATTATAAATATTTTAA [GTGCAC_site9531]”, the “gcPBM binding intensity (ln)” value falls from 9.39 to 9.38.

Going from “AAGAAAATAAAATAAAAAAAAAAATAAAAAAAATAA [TGCATGCA_negctrl_site516]” to “AAATTGTCTGCATATAGTACATAAATATATTAATAT [XGTACX_site4557]”, the “gcPBM binding intensity (ln)” value rises from 9.51 to 9.61.

Going from ATATATATATATATAGTGCATAATGTTTTAATAGAT to “TCTTTATATATATATATATGTGTGAATGTTAAGTAT [XGTACX_negctrl_site135]”, the “gcPBM binding intensity (ln)” value falls from 9.82 to 9.59.

Compared with “ATTTTTTTTTTTTCCTTACACACATATTTCATTTTA [CACACA_site748]”, “CTATTAAAAAAATTATGTACACAACGTCTCTATATA [XGTACX_site4813]” is lower in “gcPBM binding intensity (ln)” value: 10.3 for the first, 9.64 for the second.

Going from “TACATTTTTATTTTTACACACATATATATATATATA [CACACA_site1021]” to “GAGTTTATTCTTTTTATACACACCTTATTTGATTAA [CACACA_site735]”, the “gcPBM binding intensity (ln)” value falls from 9.87 to 9.83.

Compared with “TATAATATATTTATATGTACTTATTTATTTATATAT [XGTACX_site6519]”, “TATTATTTTATGAGACATAAAAAAAAAAAAAAAAAA [CACACA_negctrl_site1534]” is lower in “gcPBM binding intensity (ln)” value: 9.67 for the first, 8.79 for the second.

Going from “TTAAGTATTTTACGTACACACTTATAAATGTACAGG [CACACA_site6012]” to “AAGTATTATTATAAGACACACATGTATATAAGTATA [CACACA_site1479]”, the “gcPBM binding intensity (ln)” value rises from 9.55 to 10.1.

First: TACAAAAGTTAAACATGTACTTAATTATATGTTTTT [XGTACX_site2852]
Second: GAATATATAAGAACAAATATGGCTTAGAAAAAAAAA [TGCATGCA_negctrl_site451]
The “gcPBM binding intensity (ln)” value of the first is higher: 9.59 for the first, 9.55 for the second.

Going from “ATAAAAATGGATGAATATAAAAAAAAAAAAATATAT [CACACA_negctrl_site182]” to “TATATATATGGGTTTACACACAATAATGAATTAAAA [CACACA_site915]”, the “gcPBM binding intensity (ln)” value rises from 9.61 to 9.88.

First: CCCATGCATTTTTGCACACACATATATTTATAAATA [CACACA_site6785]
Second: CCCACAGACGGACACACACACACATATATATATATA [CACACA_site4352]
The “gcPBM binding intensity (ln)” value of the first is lower: 9.93 for the first, 11.1 for the second.

Going from “TCAAGTTTATATTAACTATTTATGAAAAAAAAAAGA [CACACA_negctrl_site902]” to “TTACACTAAATATGTTCACACATTTTTTCCATCATA [CACACA_site4647]”, the “gcPBM binding intensity (ln)” value rises from 9.38 to 9.74.

Compared with “CTAAAAATTTTAATTGCACACCACGTTGGACTATTT [CACACA_site1489]”, TATAAGGCAATAATAGTGCACTAAGATATATAATGA is higher in “gcPBM binding intensity (ln)” value: 9.77 for the first, 9.94 for the second.

Compared with “ATATATTACAAATGGAGTACTAAAAATATTCTATAT [XGTACX_site6669]”, “GATTATTTAAAATATACATGCGCGCACATATGCATA [TGCATGCA_site630]” is lower in “gcPBM binding intensity (ln)” value: 9.67 for the first, 9.55 for the second.

In the case of “TGCATTTTCCTATTTGCATGCAATTAAAATATAGAA [TGCATGCA_site862]”, the “gcPBM binding intensity (ln)” value is reported as 9.32.
